Assay results reported in US6140368A, “Naphthols useful in antiviral methods” (The Regents of the University of California, priority 1998, dated 2000).

Legend:
Test in all cases: biochemical
[1] = biological target: T1, Y188L mutant reverse transcriptase (Human immunodeficiency virus type 1 BH10, UniProt P03366, Y787L)
T1 construct: mature chain of Gag-Pol polyprotein

[2] = biological target: T2, P236L mutant reverse transcriptase (Human immunodeficiency virus type 1 BH10, UniProt P03366, P835L)
T2 construct: mature RT cut from Gag-Pol polyprotein

[3] = biological target: T3, M184V mutant reverse transcriptase (Human immunodeficiency virus type 1 BH10, UniProt P03366, M783V)
T3 construct: mature RT cut from Gag-Pol polyprotein

O=C(Nc1ccc2c(O)cc(S(=O)(=O)O)cc2c1)Nc1ccc2c(O)cc(S(=O)(=O)O)cc2c1 [Compound 1, carbonyl-J]
remaining activity at 10 µM ([1]; 10 μM): 23%
remaining activity at 50 µM ([1]; 50 μM): 2%
remaining activity at 10 µM ([2]; 10 μM): 35%
remaining activity at 50 µM ([2]; 50 μM): 4%
remaining activity at 10 µM ([3]; 10 μM): 42%
remaining activity at 50 µM ([3]; 50 μM): 5%
